The whole screen tested about 350,000 compounds, of which about 260 (0.074%) were called active. This list was built around the results that the source calls inconclusive (neither active nor inactive); the mix of calls is not that of the screen. Calls come from the whole dose curve; as a rule, active = well fitted inhibition curve with a large enough effect; inconclusive = small, poorly fitted or top-dose-only effect; inactive = no such curve, though single readings can be large or run the other way. A potency beside an inconclusive call is a rough fit, not a confirmed value.
The compounds below were run against Ferritin light chain (Equus caballus) (UniProt P02791) (assay: qHTS Assay for Identification of Novel General Anesthetics). Conditions: apoferritin/1-aminoanthracene competitive binding, fluorescence; activity change, negative = displacement: at 77.5 µM (top of the series).
Sequence of UniProt P02791 (P02791 whole entry, looked up): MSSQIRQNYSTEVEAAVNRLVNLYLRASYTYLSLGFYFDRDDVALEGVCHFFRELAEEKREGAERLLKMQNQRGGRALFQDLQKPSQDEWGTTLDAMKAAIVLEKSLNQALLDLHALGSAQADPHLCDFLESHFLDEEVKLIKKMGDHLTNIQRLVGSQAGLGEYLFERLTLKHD
Outline: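 Apoferritin-based anesthetic binding model; compound displacement of fluorescent 1-AMA measured as endpoint fluorescence after 10 minutes at room temperature, scaled to free-ligand and complex controls.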
% is set by controls: 0 for no effect and ±100 for the full control effect; potency is the fitted concentration of half-maximal effect; tags give direction and shape of the fitted curve.
Note: nearly all actives have a fitted effect of over 20% in size.

Activity change, negative = displacement, inactive:
CCc1n[nH]c2c1C(=O)CC(C)(C)C2 -0.123%
N#CCNC(=O)c1nn2c(C(F)(F)F)cc(-c3ccccc3)nc2c1Br 6.22%
C=C(C)CNC(=S)NNC(=O)CCn1c2ccc(Cl)cc2c2cc(Cl)ccc21 -7.61%
O=C(Cc1ccccc1)Nc1nc(-c2cccs2)cs1 -6.41%
CC(C)(C)c1ccc(C(=O)NC(=S)NCC2CCCO2)cc1 (centres undefined) -22.7%
O=C(NCCCN1CCN(c2ccc(F)cc2)CC1)c1ccc2nc(Cc3ccccc3)oc2c1 -0.108%
Cc1ccc(NC(=O)C2CCC(CNS(=O)(=O)c3csc(C(N)=O)c3)CC2)cc1Cl (centres undefined) -12.6%
CCCCS/C(N)=N/N=C/c1ccccc1O 49.5%
Oc1cccc(Nc2ncnc3ccccc23)c1 7.29%
COc1ccccc1/C=C/C(=O)OCC(=O)NCc1ccco1 -16.7%

Potency, inconclusive:
CC1CC(C)CN(C(=O)/C=C/c2ccc([N+](=O)[O-])s2)C1 (centres undefined) 25.1 µM [inhibitor, partial curve]
CCC(=O)NC1CCc2cccc(OC)c2C1 (centres undefined) 28.2 µM [inhibitor, partial curve]
CCOc1ccc(N2C(=O)CS/C2=C(\C(Cl)=C(Cl)Cl)[N+](=O)[O-])cc1 31.6 µM [inhibitor, single point]
CCc1cc(C(=O)Nc2cnn(Cc3ccccc3C)c2)no1 25.1 µM [inhibitor, single point]
COc1ccccc1NC(=O)C1C2CCCCC21 (centres undefined) 25.1 µM [inhibitor, partial curve]
COC(=O)c1cn(C)c2ccc(S(=O)(=O)N3CC(C)CC(C)C3)cc2c1=O (centres undefined) 7.08 µM [inhibitor, full curve, poor fit]
COc1cccc(NC(=O)c2ccc(NCCCN3CCC(C)CC3)c([N+](=O)[O-])c2)c1 28.2 µM [inhibitor, partial curve]
O=[N+]([O-])c1cc([N+](=O)[O-])c(N2CCCCCC2)cc1NCCO 11.2 µM [inhibitor, partial curve]
COC(=O)C1C(O)=C(C=Nc2ccc3ccccc3c2)C(=O)CC1(C)C (centres undefined) 25.1 µM [inhibitor, partial curve]
O=S(=O)(Nc1ccc2c(c1)OCCO2)c1cccc(F)c1 31.6 µM [inhibitor, single point]
COc1ccc(NC(=O)c2c(-c3ccc(C)cc3)nnc3ccccc23)c(OC)c1 56.2 µM [inhibitor, single point]
COC(=O)C1=C(NC(=O)c2ccccc2[N+](=O)[O-])CCS1 35.5 µM [inhibitor, single point]
Cc1nnc(SCc2ccc(F)cc2)s1 22.4 µM [inhibitor, partial curve]
Oc1ccc(F)cc1-c1cc(-c2ccc3c(c2)OCCO3)n[nH]1 20 µM [inhibitor, partial curve]
COc1cccc(C2CC(=O)N3CN(c4cccc(Cl)c4C)CSC3=C2C#N)c1OC (centres undefined) 50.1 µM [inhibitor, single point]
CCOc1ccccc1NC(=O)CSc1ccc(-c2sc(C)nc2C)nn1 22.4 µM [inhibitor, partial curve]
O=C1/C(=C/c2cccnc2)CCc2c1[nH]c1ccccc21 11.2 µM [inhibitor, partial curve]
O=c1[nH]cnc2sc(-c3ccccc3)cc12 50.1 µM [inhibitor, single point]
CC1CCN(C(=O)Cn2cc(C(=O)c3ccco3)c3ccccc32)CC1 17.8 µM [inhibitor, partial curve]
O=C(CCC(=O)Nc1ccc(F)cc1)N/N=C/c1ccncc1 22.4 µM [inhibitor, partial curve]
O=C(Cn1cnc2ccccc21)N/N=C/C(Br)=C/c1ccccc1 50.1 µM [inhibitor, single point]
Cn1c(-c2ccc(F)cc2)cnc1NCc1cc2c(cc1[N+](=O)[O-])OCO2 39.8 µM [inhibitor, partial curve]
Cc1nc2ccccc2c(-c2ccccc2)c1C(=O)c1ccccc1 35.5 µM [inhibitor, partial curve]
Cc1ccc(O)c(-c2cc(C(F)(F)C(F)F)[nH]n2)c1 17.8 µM [inhibitor, partial curve]
Cc1cc(C(=O)COc2ncnc3sccc23)c(C)n1C 28.2 µM [inhibitor, partial curve]
Cc1ccccc1CSCC(=O)N/N=C/c1cccs1 12.6 µM [inhibitor, partial curve]
COc1ccc([N+](=O)[O-])cc1/C=N/NC(=O)/C(=C\c1cccs1)NC(=O)c1ccccc1 3.16 µM [inhibitor, partial curve]
O=C(CCSc1ccc(Cl)c(Cl)c1)NC12CC3CC(CC(C3)C1)C2 3.16 µM [inhibitor, full curve, poor fit]
CCOc1ccccc1NC(=O)N1CCc2ccccc2C1 17.8 µM [inhibitor, partial curve]
Cc1ccc(CNC(=O)C23CN(Cc4ccccc4)CC2C(c2ccc([N+](=O)[O-])cc2)=NO3)cc1 (centres undefined) 2.82 µM [inhibitor, full curve]
Cc1nn(-c2ccccc2)c(Cl)c1/C=C/C(=O)c1ccccc1 39.8 µM [inhibitor, partial curve]
COc1ccc(CC(=O)NCC(=O)N/N=C/c2c[nH]c3ccccc23)cc1 15.8 µM [inhibitor, partial curve]
C=CCOc1cccc(/C=N/NC(=O)CC(=O)NC2CCCCC2)c1 3.55 µM [inhibitor, full curve]
Cn1nc([N+](=O)[O-])nc1Sc1ccc(C(C)(C)C)cc1 39.8 µM [inhibitor, partial curve]
